Several values for one entry are separate records, joined by “and”; a condition that tells them apart may be missing. Equal values may be shown once. In all, about 150,000 compounds went through this assay and about 540 (0.36%) showed an effect of 50% or more. The list shows a part of the results.
Tested on: Plasmodium falciparum
Assay: Primary screen in NF54 nanoGlo assay, in single point, at 2uM, 72h; a lower Z score goes with more inhibition
Format: functional, Erythrocyte
Settings: timepoint 72 hour

CCC(C)C1N=C(c2ccccc2)c2cc(Cl)ccc2N(CC(=O)Nc2ccc(F)c(Cl)c2)C1=O (stereo not drawn)
% Inhibition: -3%
Z score: 0.45

COc1ccc(-c2cc(C(=O)N3CCC4(CC3)OCCO4)n3nc(-c4ccccc4)cc3n2)cc1
% Inhibition: -10%
Z score: 1.3

CCC1CCC(N(CCO)CCO)CC1 (stereo not drawn)
% Inhibition: 0%
Z score: 0.04

CC1CN2c3ccccc3CC3(C(=O)NC(=O)N(C(C)(C)C)C3=O)C2C(C)O1 (stereo not drawn)
% Inhibition (2 µM): 2% and -4%

C=C1[C@H]2C[C@@]3([C@@H]1O)[C@@H](CC2=O)[C@@]12C4[C@@H]3C[C@@H]1[C@@](C)(CC[C@@H]2O)C[N+]4([O-])CC (stereo partly drawn)
% Inhibition: 0%
Z score: 0

CCN1CCN(c2nncc3ccccc23)CC1
% Inhibition: 13%
Z score: -1.16

CCc1nc(CN2[C@@H]3CC[C@H]2C[C@@H](O)C3)n[nH]1
% Inhibition: -20%
Z score: 2.41

O=C(c1ccncc1)N1C[C@H](c2ccccc2)[C@@H]2[C@H]1C1CCN2CC1
% Inhibition: -6%
Z score: 0.82

CC(C)C[C@H](CNC(=O)c1cccc(-c2cnco2)c1)CC(=O)O
% Inhibition: -2%
Z score: 0.24

CCc1onc(C)c1CN[C@](C)(CO)Cc1ccc(Cl)cc1
% Inhibition: -10%
Z score: 1.07

CCc1nsc(N2CCC[C@@H]2CF)n1
% Inhibition: -7%
Z score: 0.86

O=C(NCc1ccc(N2CCNCC2)c(F)c1)[C@H]1CC1(Cl)Cl
% Inhibition: -3%
Z score: 0.36

Clc1cnccc1CN[C@H]1C[C@H](N2CCOCC2)C12CCC2
% Inhibition: -8%
Z score: 1.24

O=C(c1cnccn1)N1C[C@@H](c2cccc(O)c2)[C@@H]2[C@H]1C1CCN2CC1
% Inhibition: 1%
Z score: -0.1

O=C1CO[C@H]2CN(Cc3ccccc3)C[C@H]2N1Cc1cccnc1
% Inhibition: 13%
Z score: -1.52

Cc1cccc(=O)n1C[C@](C)(O)C(=O)Nc1nc(C2CC2)cs1
% Inhibition: -8%
Z score: 0.93

CCCNc1ncc(CN2C[C@H]3c4ccccc4OC[C@@]3(C(=O)O)C2)cn1
% Inhibition: -1%
Z score: 0.11

CC(C#N)CNC(=O)NC(C)Cc1ccc(F)c(Br)c1 (stereo not drawn)
% Inhibition: -3%
Z score: 0.63

C[C@@H](Cn1cccn1)NCC(=O)Nc1cccc(Br)c1
% Inhibition: -11%
Z score: 1.1

COC(=O)c1cc(Cl)cc(NC(=O)CC2CC3CCC(C2)N3)c1 (stereo not drawn)
% Inhibition: 0%
Z score: -0.04

O=C(NC1CCCCC1)N1C[C@@H]2C[C@H](C1)c1c(-c3ccccc3F)ccc(=O)n1C2
% Inhibition: 40%
Z score: -4.57

CN1C[C@@H]2CN(C(=O)Nc3cccnc3OCC(F)F)C[C@]2(C)C1
% Inhibition: 0%
Z score: 0.08

COc1ccc(-c2c(C(=O)O)nnn2Cc2cccc(F)c2)cc1
% Inhibition: -18%
Z score: 1.98

O=C(c1cccc2[nH]c(=O)oc12)N1CCOCC(F)(F)C1
% Inhibition: -1%
Z score: 0.12

c1cc(-c2ccc3c(c2)CNCC3)cc(-n2cccn2)c1
% Inhibition: -3%
Z score: 0.43

CN(Cc1ccc(Cl)cc1)C[C@H](O)c1ccc(F)cc1
% Inhibition: 1%
Z score: -0.16

O=C(c1ccc(Cl)cc1)[C@H]1CCCN(C2CCC2)C1
% Inhibition: -15%
Z score: 1.99

Cc1nc(-c2ccccc2Br)cc([C@H]2CN3CC[C@H]2C[C@@H]3CNC(=O)c2ccc(C(C)(C)C)cc2)n1
% Inhibition: 12%
Z score: -1.35

O=C(NCc1cccnc1)[C@H]1[C@@H]2CN(C/C=C/c3ccco3)C[C@@H]21
% Inhibition: -5%
Z score: 0.97

CCC(CC)n1nc(C(=O)[C@H](C#N)C(=O)NC)cc1C
% Inhibition: 17%
Z score: -2.02

Cc1ccc(CC(=O)N2CCN(Cc3ccc(Cl)s3)CC2)cn1
% Inhibition: -12%
Z score: 1.53

CC1OCCC1NC1(c2ccccc2F)CC1 (stereo not drawn)
% Inhibition: -7%
Z score: 0.95

CCC(=O)c1c(O)n(C2CCCCCC2)c(=O)[nH]c1=O
% Inhibition (2 µM): -11% and -9%
Z score (2 µM): 1.37 and 1.48

CN1CCC2CCN(C(=O)c3cc(C4CC4)on3)C2C1 (stereo not drawn)
% Inhibition: 36%
Z score: -1.16

CN1CCN(c2ncnc3[nH]ccc23)CC12CCCCC2
% Inhibition: 3%
Z score: -0.63

CN(C)C(=O)c1ccc(N2CC[C@H]3CC[C@@H](C2)N3C)nc1
% Inhibition: -4%
Z score: 0.7

CC[C@@H](C(=O)N(C)c1ncccc1F)N1CCCC1=O
% Inhibition: -3%
Z score: 0.52

O=C(NC1CCCCC1)N1[C@H]2CC[C@@H]1c1cncnc1C2
% Inhibition: -12%
Z score: 1.66

COCc1nn(CCCN2CCOC2=O)c(=O)o1
% Inhibition: -5%
Z score: 0.43

O=C(CN1[C@@H]2CC[C@H]1C[C@@H](O)C2)Nc1ccc(Cl)cn1
% Inhibition: -8%
Z score: 1.05

OC1C2CCCC1CN(Cc1ccncc1)C2 (stereo not drawn)
% Inhibition: -12%
Z score: 1.89

C[C@H](NC(=O)N1CCN(c2ccc(Cl)c(Cl)c2)CC1)C(=O)N1CCC(=O)CC1
% Inhibition: 2%
Z score: -0.3

CCn1cc(CNc2ncncc2C)c(=O)[nH]c1=O
% Inhibition: -5%
Z score: 0.79

CCc1ccc(S(=O)(=O)Nc2ccc3[nH]c(=O)oc3c2)cc1
% Inhibition: 10%
Z score: -1.8

COc1ccc(-n2c(-c3cccc4ccccc34)nc3ccccc3c2=O)cc1
% Inhibition: 1%
Z score: -0.12

O=C(Cc1cccc(Cl)c1)N1C[C@@H]2CC[C@H]1CN(Cc1ccccn1)C2
% Inhibition: -8%
Z score: 1

CCC[C@H](C)C(=O)Nc1ccc2[nH]cc(CCN(CCC)CC3CC3)c2c1
% Inhibition: -8%
Z score: 0.89

COCCn1cncc1Cn1c(=O)cnc2ccccc21
% Inhibition: 0%
Z score: 0.05

Cc1cc(C(=O)N2C[C@H](c3cc(F)cc(F)c3)[C@@H]3[C@H]2C2CCN3CC2)[nH]n1
% Inhibition: -7%
Z score: 1.11

Cc1cc(=O)c(C(=O)NCCc2ccccn2)c(CCc2ccccc2)n1C[C@H]1CCCO1
% Inhibition: -20%
Z score: 2.6

CC(Cc1ccc(O)cc1)NC(C)c1nccn1C (stereo not drawn)
% Inhibition: -17%
Z score: 2.64

CC(C)N1C2CCC1CN(C(=O)CCc1cccnc1)CC2 (stereo not drawn)
% Inhibition: -3%
Z score: 0.54

NCCc1c[nH]c2cc(OCc3ccccc3)ccc12
% Inhibition: -4%
Z score: 0.52

Cc1ccc(C)n1-c1c(C(=O)N2CCC3(CC2)OCCO3)sc2ncccc12
% Inhibition: -25%
Z score: 2.33

c1ccc(COCCCc2nc([C@@H]3CN4CCN3CC4)no2)cc1
% Inhibition: -6%
Z score: 1.18

COc1ccc2c(CC(=O)N3CC[C@H](N4CCN(C(C)C)CC4)C3)coc2c1C
% Inhibition: 7%
Z score: -1.25

CCN(CC)C(=O)Oc1ccc2c(ccn2Cc2ccc(C)cc2)c1-c1cc(Cl)cc(Cl)c1
% Inhibition: -11%
Z score: 1.5

C1=CC[C@@H](CN2CCCC3(C2)OCCO3)CC1
% Inhibition: -6%
Z score: 0.9

CN1CCC[C@@]2(CCN(C(=O)Nc3cc4c(nn3)CCC4)C2)C1
% Inhibition: -10%
Z score: 0.98

CCOCC(=O)N1[C@@H]2CC[C@H]1Cc1nc(-c3ccccc3)[nH]c(=O)c1C2
% Inhibition: -20%
Z score: 2.95

O=c1n(CCN2CCOC3CCCCC32)nc2ccccn12 (stereo not drawn)
% Inhibition: -7%
Z score: 1.39

CC(C)(C)N1C(=O)NC(=O)[C@]2(Cc3ccccc3N3CCOC[C@H]32)C1=O
% Inhibition: -10%
Z score: 1.62

CCn1cc(CN2CC(C(=O)c3ccc(F)cc3)C2)cn1
% Inhibition: -10%
Z score: 1.87

CN1CCC[C@@]12CCN(Cc1ccc(OCC(F)(F)F)nc1)C2
% Inhibition: -3%
Z score: 0.36

Cc1c(C)[n+]([O-])c([C@@H](CC(C)C)C2C(=O)N(C)C(=O)N(C)C2=O)n1Cc1ccccc1
% Inhibition: -1%
Z score: 0.07

CC(Cn1cncn1)NC1CCc2c(F)ccc(Br)c21 (stereo not drawn)
% Inhibition: -13%
Z score: 1.43

O=C(Cc1cccc(F)c1)N1CC(N(Cc2ccccc2)C2CCOCC2)C1
% Inhibition: 5%
Z score: -0.98

CCN(CC)C(=O)c1ccc(N(C)S(C)(=O)=O)c(C)c1
% Inhibition: -10%
Z score: 1.92

COc1cccc(C2CCN(Cc3nc(N(C)C)no3)CC2)c1F
% Inhibition: -2%
Z score: 0.29

COc1ccc(-c2n[nH]c3c2C2(C(=O)O)CC(N3)c3cc(Cl)ccc3O2)cc1 (stereo not drawn)
% Inhibition: 33%
Z score: -3.73

CN1C(=O)C([C@H]2c3ccccc3C(=O)N2Cc2ccccc2)C(=O)N(C)C1=O
% Inhibition: -4%
Z score: 0.4

Clc1ccc([C@H]2CCCCNC2)cc1
% Inhibition: -6%
Z score: 1.15

O=C(NCc1noc2ccc(F)cc12)[C@H]1NCC12CCCC2
% Inhibition: -6%
Z score: 1.12

Cc1c(C(=O)[C@H](C#N)C(=O)NC(C)C)cnn1CC1CCOCC1
% Inhibition: -5%
Z score: 0.54

CC1c2ccccc2OC1C(=O)NCc1ccc(N2CCNCC2)c(F)c1 (stereo not drawn)
% Inhibition: 3%
Z score: -0.34

CC(C)n1ccc(C(=O)N[C@H](C(=O)OCc2ccccc2)[C@H](C)O)n1
% Inhibition: -8%
Z score: 1.05

O=C(c1ccc2[nH]cnc2c1)N1CCN(Cc2ccc(S(=O)(=O)F)cc2)CC1
% Inhibition: -11%
Z score: 1.6

CN(C)[C@@H]1CCC[C@H]1NC(=O)c1ccc(C(C)(F)F)nc1
% Inhibition: 7%
Z score: -1.36

CCCN(CCO)S(=O)(=O)c1ccc(C#N)c(C(F)(F)F)c1
% Inhibition: -14%
Z score: 2.6

COc1cccc([C@H]2CN(C(=O)c3cccc(C)c3)[C@@H]3C4CCN(CC4)[C@H]23)c1
% Inhibition: -1%
Z score: 0.19

O=C(c1cn2ccnc(-c3ccccc3)c2n1)N1CCC2(CC1)OCCO2
% Inhibition: 34%
Z score: -3.82

O[C@@]12C[C@@H]([C@H]3CO[C@@H]1O3)n1nnnc1N2
% Inhibition: 9%
Z score: -1.07

From ChEMBL document CHEMBL4888484, “Replenishing the malaria drug discovery pipeline: Screening and hit evaluation of the MMV Hit Generation Library 1 (HGL1) against asexual blood stage Plasmodium falciparum ,using a nano luciferase reporter read-out” (2022)
